This note sets out measurements from PubChem BioAssay AID488969 (Vanderbilt High Throughput Screening Facility, 2010).

In all, about 110,000 compounds were measured (“z-score”: median about -0.1, highest 2% from about 2 on). Some of the results follow. Activity calls are given as the source filed them.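 The calls were made as follows: active = z-score in the third read window above 3 or below -3; inactive = the rest.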

The target of the test is Metabotropic glutamate receptor 8 (Rattus norvegicus) (UniProt P70579). Kind of test: mGluR8 Gi/Go-coupled signaling modulation – cell-based, rat, thallium flux, HTS, primary screen (AID 488969). As to conditions: HEK293 rat mGluR8, GIRK (G protein-gated inwardly rectifying potassium channel) thallium flux, FluoZin2; at 10 µM; stronger effect = higher value; submaximal glutamate (EC20) added with thallium.
Sequence of UniProt P70579 (P70579 whole entry, looked up): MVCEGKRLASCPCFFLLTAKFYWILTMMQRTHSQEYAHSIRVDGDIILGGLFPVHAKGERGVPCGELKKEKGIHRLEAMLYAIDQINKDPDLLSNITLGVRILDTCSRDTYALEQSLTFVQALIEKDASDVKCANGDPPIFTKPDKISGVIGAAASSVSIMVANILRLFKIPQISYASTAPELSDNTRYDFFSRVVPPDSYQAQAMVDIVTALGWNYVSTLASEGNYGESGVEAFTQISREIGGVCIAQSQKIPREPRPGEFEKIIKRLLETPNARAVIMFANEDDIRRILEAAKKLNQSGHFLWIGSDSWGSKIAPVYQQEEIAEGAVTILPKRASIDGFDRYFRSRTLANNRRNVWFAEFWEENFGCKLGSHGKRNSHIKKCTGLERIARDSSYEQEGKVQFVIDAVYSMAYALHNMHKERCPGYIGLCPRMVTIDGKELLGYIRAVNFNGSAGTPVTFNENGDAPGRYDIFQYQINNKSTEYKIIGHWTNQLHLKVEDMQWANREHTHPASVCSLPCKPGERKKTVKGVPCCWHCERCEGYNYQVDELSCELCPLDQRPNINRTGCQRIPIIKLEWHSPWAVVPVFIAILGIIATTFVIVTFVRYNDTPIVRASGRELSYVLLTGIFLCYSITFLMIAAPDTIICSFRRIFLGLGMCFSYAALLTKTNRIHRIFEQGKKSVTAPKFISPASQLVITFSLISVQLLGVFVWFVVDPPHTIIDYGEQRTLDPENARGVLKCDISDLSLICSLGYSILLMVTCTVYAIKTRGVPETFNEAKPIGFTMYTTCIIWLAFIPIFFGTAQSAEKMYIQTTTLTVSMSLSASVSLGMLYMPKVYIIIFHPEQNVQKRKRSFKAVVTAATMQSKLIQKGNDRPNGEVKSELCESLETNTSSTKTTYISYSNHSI
In the case of `Cc1ccc(Cl)cc1N1CCN(C(=O)CSc2nnc3n2C(C)(C)Cc2ccccc2-3)CC1`, the z-score was 1.18.

In turn, `CCOC(=O)c1cnc2sc3c(n2c1=O)CCCC3` yielded a z-score of -0.748.

Molecule `Cc1ccc(S(=O)(=O)C2C(=O)N(C)C3(C)CC2c2ccccc2O3)cc1` (configuration not stated) came in with a z-score of -0.0246.

For `Cc1cc(Cl)c(S(=O)(=O)NC(C(=O)O)C(C)C)cc1OCC(=O)NC1CCCCC1` (configuration not stated), the z-score was -0.47.

For `Cc1cccc(-n2c(C)nc3cc(C(=O)NCc4ccc5c(c4)OCO5)ccc32)c1`, the z-score was 0.471.

In turn, `Cn1c(=O)n(CC(=O)O)c(=O)c2c1nc1n2CCS1` returned a z-score of 0.0884.

`COc1ccc(C2c3c(oc4ccccc4c3=O)C(=O)N2CCCN2CCOCC2)cc1` (configuration not stated): the z-score is 0.392.

`CC(=O)Nc1ccc(C(=O)CSc2nc3ccc(C)cc3[nH]2)cc1`: the z-score was active: -3.05.

As for `CC(=O)Nc1cccc2c1C(=O)N(c1cccc(C)c1)C2=O`, the z-score is active: 3.13.

With `O=C(CSC1=Nc2ccccc2C2=NC(CC(=O)NCc3ccco3)C(=O)N12)NCc1ccco1` (configuration not stated), the z-score came to 0.141.

The molecule `COc1cc(NC(=O)CN(C)Cc2ccc(OC(F)F)cc2)c(C)cc1[N+](=O)[O-]` displayed a z-score of -0.0913.

In the case of `Cc1ccc(N=Cc2c(O)n(-c3nccs3)c(=O)c3ccccc23)cc1`, the z-score is -0.21.

`COc1cc(C)c(Cl)cc1S(=O)(=O)NCC1CCCO1` (configuration not stated): the z-score came to 0.287.

`CC(=O)C1=C(C)OC(N)=C(C#N)C1c1ccco1` (configuration not stated) yielded a z-score of 1.13.

On to `Nc1nonc1C(=O)NCCc1ccccc1`, for which the z-score is -0.0967.

Molecule `CCn1c(=O)c(C(=O)CN2CCc3ccccc32)c(N)n(Cc2ccccc2)c1=O` returned a z-score of -0.27.

In turn, `Cn1c(=O)c2c(nc(SCC(=O)NCc3ccc4c(c3)OCO4)n2Cc2ccc(Cl)cc2)n(C)c1=O` showed a z-score of 1.03.

Molecule `Cc1ccc(C2C=C(c3ccc4c(c3)OCO4)Nc3ncnn32)cc1` (configuration not stated) returned a z-score of -0.377.

For `CCc1nc2cc(CC(=O)O)ccc2o1`, the z-score was -0.775.

For the molecule `CCCCn1c(/C=N/Nc2nc3ccccc3[nH]2)nc2ccccc21`, the z-score was -0.339.

Take `O=C(NCc1ccc2c(c1)OCO2)c1ccc(CN2CCOCC2)cc1`: the z-score was 0.16.

For `CC1CC(C)CN(CCCSc2ccccc2)C1` (configuration not stated), the z-score amounted to 0.321.

For `COCCCNC(=O)c1ccc(N(C)S(=O)(=O)c2ccc(OC)cc2)cc1`, the z-score amounted to 0.906.

Molecule `COC(=O)c1ccc(NC(=O)COc2ccc(S(=O)(=O)N3CCCCC3)cc2)cc1` registered a z-score of 0.21.

The molecule `Cc1nc2c(C#N)c[nH]n2c(=O)c1Cc1ccccc1` came in with a z-score of -0.371.

`CCC(C)NC(=O)C1c2ccccc2C(=O)N1Cc1ccc(OC)cc1OC` (configuration not stated): the z-score is -0.296.

`COc1ccc(/C=C2\N=C(SC)NC2=O)cc1` displayed a z-score of 1.23.

In the case of `CCCCCCNC(=O)C(C#N)c1nc2ccccc2nc1N1CCOCC1` (configuration not stated), the z-score was determined as 0.653.

In turn, `O=C(NCCN1CCN(c2ccccc2)CC1)c1ccc(NC(=O)C2CCCO2)cc1` (configuration not stated) registered a z-score of 0.24.

Regarding `CN1/C(=C\C=Nc2cc(S(=O)(=O)N3CCOCC3)ccc2N2CCOCC2)C(C)(C)c2ccccc21`, the z-score amounted to 0.15.

For the molecule `O=C(NCC1CCCO1)c1onc(CSc2ccc(Cl)cc2)c1C(=O)O` (configuration not stated), the z-score was -0.0082.

As for `CNS(=O)(=O)c1ccc(OC)c(-c2nnc3c4ccccc4c(C)nn23)c1`, the z-score was -0.304.

Take `COc1ccc(OCCNC(=S)Nc2cccc3ccccc23)cc1`: the z-score came to 0.367.

Take `CCOC(=O)C1=C(CC)NC2=C(C(=O)CCC2)C1c1ccc(OC)c(OC)c1` (configuration not stated): the z-score was -0.157.

On to `O=C(Nc1cc(Cl)ccn1)C1CCN(S(=O)(=O)c2cccs2)CC1`, for which the z-score came out at 0.347.

`COc1ccc(-n2ccc(=O)c3c2CCCC3=O)cc1` yielded a z-score of -0.208.

Molecule `O=C(Nc1ccccn1)c1ccc2ccccc2n1` gave a z-score of -0.139.

Take `COC(=O)C(C)Sc1ncnc2c1nnn2-c1ccc(F)cc1` (configuration not stated): the z-score worked out at 0.394.

As for `Cc1cc(C)cc(NC(=O)c2nnn(Cc3cc(C)ccc3C)c2N)c1`, the z-score was -0.0673.

The molecule `COC(=O)c1c(C)nc2ccccc2c1C(=O)O` gave a z-score of 0.148.

As for `CC(=O)Nc1cccc(NC(=O)c2cc(-c3cccnc3)nc3ccc(Br)cc23)c1`, the z-score came to 0.255.

In turn, `COc1ccc(Cn2c(CCCO)nc3ccccc32)cc1OC` returned a z-score of 0.229.

`O=C(Cn1nnc(-c2ccccc2)n1)NCc1ccco1` came in with a z-score of 0.185.

The molecule `c1ccc(-n2nnnc2Oc2cccc3cccnc23)cc1` showed a z-score of 0.00666.

In turn, `CCN(CC)c1c([N+](=O)[O-])ncn1C` showed a z-score of 0.53.

As to `Cc1ccc(-c2c(C)sc(=NC(=O)c3ccco3)n2C)cc1`, the z-score is -0.33.

Regarding `N#Cc1c(-c2ccccc2)cc(-c2ccccc2)nc1SCc1nnc(-c2ccccc2)o1`, the z-score is -0.0499.

For `CCOC(=O)N1CCC(N2CCN(S(=O)(=O)c3ccc(C)cc3)CC2)CC1`, the z-score stood at 0.477.

In the case of `O=C(NCc1cccs1)C1CCN(S(=O)(=O)c2ccc3c(c2)OCCO3)CC1`, the z-score is -0.357.

Consider `CCc1ccc(C2NC(C(=O)O)CS2)cc1` (configuration not stated), for which the z-score is -0.258.

Consider `Cc1ccc(-c2nc3ccccc3n2C)o1`, for which the z-score is -0.291.

With `CCN(Cc1cc2ccc(C)cc2[nH]c1=O)C(=O)c1cccnc1`, the z-score is -0.212.

Molecule `C#Cc1ccc(C(=O)Nc2cc(C(N)=O)ccc2N2CCOCC2)cc1` showed a z-score of 0.0137.

Consider `Cc1ccc(CNC(=O)COC(=O)[C@@H]2CC(O)CN2S(=O)(=O)c2ccc3c(c2)OCCO3)cc1` (some centres not stated), for which the z-score was -0.146.

Regarding `O=C(COc1nc2ccccc2nc1N1CCOCC1)N1CCc2ccccc21`, the z-score was found to be 0.615.

On to `N#CCSc1nc2c(cc1C#N)CCCC2`, for which the z-score was 0.113.

For `Cc1ccc(S(=O)(=O)NCC2COc3ccccc3O2)cc1` (configuration not stated), the z-score is -0.0372.

Turning to `CN(C)S(=O)(=O)c1ccc2nc(NC(=O)c3cccnc3)sc2c1`, the z-score turned out to be 0.447.

Consider `CC(C)(C)n1nc2c(c1NC(=O)Cc1ccc(F)cc1)CSC2`, for which the z-score was -0.558.

The molecule `COc1cccc(C(=O)O/N=C(\N)c2ccc([N+](=O)[O-])cc2)c1OC` displayed a z-score of 0.268.

`CC1=C(C#N)C(NC(=O)c2cccc(Cl)c2)(C(F)(F)F)C(=O)N1` (configuration not stated) registered a z-score of 1.42.

As for `COC(=O)C1=C(C)NC(=O)CC1c1ccccc1` (configuration not stated), the z-score was -0.388.

`Cc1nnc(NC(=O)CCCOc2ccccc2)s1` registered a z-score of 0.567.

In turn, `COc1ccc(/C=C/C(=O)c2ccc(Cl)s2)cc1O` displayed a z-score of -0.156.

`O=C1CSC(c2ccncc2)N1Cc1ccco1` (configuration not stated): the z-score is 0.22.

For the molecule `Cc1cc(-c2ccccc2)nc(N(C)NC(=O)c2cccc(C(F)(F)F)c2)c1S(C)(=O)=O`, the z-score was 0.638.

Molecule `Cc1ccc(CNC(=O)C2(C)Oc3ccccc3NC2=O)cc1` (configuration not stated) displayed a z-score of 0.22.

In the case of `Cc1nn(-c2ccc(C(=O)O)cc2)c(C)c1Oc1ccccc1O`, the z-score was -0.318.

In the case of `CC(=O)N1CCN(c2ccc(S(=O)(=O)N3CCCCC3)cn2)CC1`, the z-score was -0.0994.

For `COc1cccc(C(=O)Nc2ccc(C(=O)O)cc2)c1`, the z-score is -0.123.

The molecule `Cc1nnc(C)n1/N=C/c1cccnc1` showed a z-score of 0.457.

Molecule `C=CCn1c(N2C(=O)CC(Cc3ccccc3)C2=O)nc2ccccc21` (configuration not stated) registered a z-score of -0.0227.
